The whole screen tested about 2,700 compounds, of which about 160 (5.9%) showed an effect of 50% or more. This is one part of the list.
Target: Nonstructural protein 3 (Zika virus) (UniProt A0A024AXB9)
[1] = PRVABC59, Concentration 50.0 uM, Number of replicates 1.0
[2] = PRVABC59, Concentration 15.0 uM, Number of replicates 1.0

Sequence of UniProt A0A024AXB9 (A0A024AXB9 as listed by the source): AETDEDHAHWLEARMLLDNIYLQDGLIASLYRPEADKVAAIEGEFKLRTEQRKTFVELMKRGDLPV

## NC(=O)C1(NC(=O)[C@]2(c3ccc(F)cc3)CCCNC2)CCOCC1
PRVABC59, Concentration 49.5 uM, Number of replicates 2.0, Standard deviation 2.6620442637608246 %
  inhibition: 0.389%
PRVABC59, Concentration 99.01 uM, Number of replicates 2.0, Standard deviation 3.20139933861607 %
  inhibition: -3.33%
PRVABC59, Concentration 198.0 uM, Number of replicates 2.0, Standard deviation 2.412796905386676 %
  inhibition: -3.16%

## Cn1cc(NC(=O)c2ccccc2C(F)(F)F)c(-c2ccc(F)nc2)n1
PRVABC59, Concentration 49.5 uM, Number of replicates 2.0, Standard deviation 3.7021868860702094 %
  inhibition: -2.94%
PRVABC59, Concentration 99.01 uM, Number of replicates 2.0, Standard deviation 2.942135191637428 %
  inhibition: -1.07%
PRVABC59, Concentration 198.0 uM, Number of replicates 2.0, Standard deviation 0.6047722099533683 %
  inhibition: -1.47%

## C[C@H]1CN(Cc2ccccc2)CCN1C(=O)C1CCN(c2ccc(C=O)cc2)CC1
[1]
  inhibition: 27.6%

## COc1nccc(-c2nn(C)cc2NC(=O)c2ccccc2C(F)(F)F)c1F
PRVABC59, Concentration 49.5 uM, Number of replicates 2.0, Standard deviation 0.9155406487492931 %
  inhibition: -2.15%
PRVABC59, Concentration 99.01 uM, Number of replicates 2.0, Standard deviation 1.9246139630355987 %
  inhibition: 0.421%
PRVABC59, Concentration 198.0 uM, Number of replicates 2.0, Standard deviation 3.811455288233007 %
  inhibition: 2.07%

## O=C(NCCc1cccc(Br)c1)c1cc(Cl)ccc1NS(=O)(=O)c1ccc(Oc2ccccc2Cl)cc1
[2]
  inhibition: 25.4%

## COc1cccc(OCCCNC(=O)C2CCN(c3ccc(C=O)cc3)CC2)c1
[1]
  inhibition: 9.81%

## C[C@@H](c1ccccc1)N(CC1CC1)C(=O)c1cc(Cl)ccc1NS(=O)(=O)c1ccc(Oc2ccccc2Cl)cc1
[2]
  inhibition: 22.3%

## O=Cc1ccc(N2CCC(C(=O)N3CCC(C(F)(F)F)CC3)CC2)cc1
[1]
  inhibition: 26.2%

## COc1ccc(S(=O)(=O)n2nc(OC(=O)c3ccccc3)cc2N)cc1
PRVABC59, Concentration 49.5 uM, Number of replicates 2.0, Standard deviation 0.018531126353269887 %
  inhibition: 99.1%
PRVABC59, Concentration 99.01 uM, Number of replicates 2.0, Standard deviation 0.03874003445206144 %
  inhibition: 99.1%
PRVABC59, Concentration 198.0 uM, Number of replicates 2.0, Standard deviation 0.035373681367799316 %
  inhibition: 99%

## CC(C)(C)N(Cc1cccnc1)C(=O)c1cc(Cl)ccc1NS(=O)(=O)c1ccc(Oc2ccccc2Cl)cc1
[2]
  inhibition: 21.6%

## O=C(c1ccn([C@H]2CCCNC2)n1)N1CC[C@H](c2cc(O)[nH]n2)C1
PRVABC59, Concentration 49.5 uM, Number of replicates 2.0, Standard deviation 3.310524778668719 %
  inhibition: -0.872%
PRVABC59, Concentration 99.01 uM, Number of replicates 2.0, Standard deviation 4.319681080099742 %
  inhibition: -0.283%
PRVABC59, Concentration 198.0 uM, Number of replicates 2.0, Standard deviation 0.2522890964311802 %
  inhibition: -1.9%

## O=Cc1ccc(N2CCC(C(=O)Nc3cc(Cl)nc(Cl)n3)CC2)cc1
[1]
  inhibition: 17.4%

## O=C(NC1(c2cccc(F)c2)CC1)c1cc(Cl)ccc1NS(=O)(=O)c1ccc(Oc2ccccc2Cl)cc1
[2]
  inhibition: 30.5%

## CC(=O)Nc1ccc(NC(=O)C2CCN(c3ccc(C=O)cc3)CC2)cc1
[1]
  inhibition: 11.4%

## CN(CCC=C1c2ccccc2CCc2ccccc21)C(=O)c1cc(Cl)ccc1NS(=O)(=O)c1ccc(Oc2ccccc2Cl)cc1
[2]
  inhibition: 2.51%

## CN(CCc1ccccc1F)C(=O)C1CCN(c2ccc(C=O)cc2)CC1
[1]
  inhibition: 25.8%

## Cc1ccc(CN(C(=O)c2cc(Cl)ccc2NS(=O)(=O)c2ccc(Oc3ccccc3Cl)cc2)C2CC2)s1
[2]
  inhibition: 15.2%

## O=Cc1ccc(N2CCC(C(=O)Nc3ncnc(Cl)c3Cl)CC2)cc1
[1]
  inhibition: 17.7%

## O=C(Nc1ncnc2c1ncn2CCO)c1cc(Cl)ccc1NS(=O)(=O)c1ccc(Oc2ccccc2Cl)cc1
[2]
  inhibition: 20.6%

## O=C(Nc1nnc(Cl)cc1Br)c1cc(Cl)ccc1NS(=O)(=O)c1ccc(Oc2ccccc2Cl)cc1
[2]
  inhibition: 24.2%

## O=C(c1cc(Cl)ccc1NS(=O)(=O)c1ccc(Oc2ccccc2Cl)cc1)N1CCN(c2nccs2)CC1
[2]
  inhibition: 14.1%

## CC(C)(CO)NC(=O)c1cc(Cl)cc(OCc2ccccn2)c1
PRVABC59, Concentration 49.5 uM, Number of replicates 2.0, Standard deviation 3.4081981191908355 %
  inhibition: -2.68%
PRVABC59, Concentration 99.01 uM, Number of replicates 2.0, Standard deviation 2.4351306047062957 %
  inhibition: -2.68%
PRVABC59, Concentration 198.0 uM, Number of replicates 2.0, Standard deviation 3.659259520071742 %
  inhibition: -0.396%

## CC(C)(CNC(=O)c1cc(Cl)ccc1NS(=O)(=O)c1ccc(Oc2ccccc2Cl)cc1)c1cccc(Cl)c1
[2]
  inhibition: 47.6%

## CCN(CCNC(=O)C1CCN(c2ccc(C=O)cc2)CC1)c1cccc(C)c1
[1]
  inhibition: 21.9%

## Cc1cc(CO)c2cccc(NC(=O)c3nc(N)n[nH]3)c2n1
PRVABC59, Concentration 49.95 uM, Number of replicates 2.0, Standard deviation 1.6810779662500097 %
  inhibition: 28.9%
PRVABC59, Concentration 99.9 uM, Number of replicates 2.0, Standard deviation 2.6897269039186593 %
  inhibition: 60.8%

## O=C(Nc1ccc(Oc2ccc(Cl)cc2)cc1)c1cc(Cl)ccc1NS(=O)(=O)c1ccc(Oc2ccccc2Cl)cc1
[2]
  inhibition: 14.2%

## CN(C(=O)OC(C)(C)C)[C@H]1CCN(C(=O)C2CCN(c3ccc(C=O)cc3)CC2)C1
[1]
  inhibition: 18.8%

## COc1cc(Cc2ccc3c(c2)NC(=O)CO3)nc(N2CCNCC2)n1
PRVABC59, Concentration 49.5 uM, Number of replicates 2.0, Standard deviation 1.5078451044167143 %
  inhibition: 2.01%
PRVABC59, Concentration 99.01 uM, Number of replicates 2.0, Standard deviation 1.992324518895442 %
  inhibition: 4.72%
PRVABC59, Concentration 198.0 uM, Number of replicates 2.0, Standard deviation 1.6814286280296202 %
  inhibition: 10.8%

## Cc1cc(CO)c2cccc(Cc3ccccc3C(=O)N3CC[C@@H](O)C3)c2n1
PRVABC59, Concentration 49.95 uM, Number of replicates 2.0, Standard deviation 0.18876460771228748 %
  inhibition: -8.95%
PRVABC59, Concentration 99.9 uM, Number of replicates 2.0, Standard deviation 1.2164824655212059 %
  inhibition: -7.58%

## CN(C[C@H](O)c1ccc(O)cc1)C(=O)c1cc(Cl)ccc1NS(=O)(=O)c1ccc(Oc2ccccc2Cl)cc1
[2]
  inhibition: 6.47%

## C[C@@H](c1ccccc1)N(CC1CC1)C(=O)C1CCN(c2ccc(C=O)cc2)CC1
[1]
  inhibition: 24.9%

## O=C(NCc1noc(-c2ccco2)n1)c1cc(Cl)ccc1NS(=O)(=O)c1ccc(Oc2ccccc2Cl)cc1
[2]
  inhibition: 48.1%

## Cc1cc(CO)c2cccc(NC(=O)CC3CNC3)c2n1
PRVABC59, Concentration 49.95 uM, Number of replicates 2.0, Standard deviation 1.5957700474656553 %
  inhibition: -6.72%
PRVABC59, Concentration 99.9 uM, Number of replicates 2.0, Standard deviation 1.1039918524960535 %
  inhibition: -6.98%

## CC(C)N(C[C@H](O)COc1cccc2ccccc12)C(=O)C1CCN(c2ccc(C=O)cc2)CC1
[1]
  inhibition: 26.7%

## O=Cc1ccc(N2CCC(C(=O)Nc3c(F)cc(F)cc3Cl)CC2)cc1
[1]
  inhibition: 23.6%

## O=C1CC2(CCN(C(=O)c3cc(Cl)ccc3NS(=O)(=O)c3ccc(Oc4ccccc4Cl)cc3)CC2)CN1
[2]
  inhibition: -1.87%

## COc1cc(C(=O)NCc2ccccc2)nc(N2CCNCC2)n1
PRVABC59, Concentration 49.5 uM, Number of replicates 2.0, Standard deviation 2.737889624998604 %
  inhibition: -0.457%
PRVABC59, Concentration 99.01 uM, Number of replicates 2.0, Standard deviation 3.0534651647482876 %
  inhibition: 0.049%
PRVABC59, Concentration 198.0 uM, Number of replicates 2.0, Standard deviation 2.478899938297465 %
  inhibition: 0.696%

## O=C(NCc1ccc2c(c1)OCCO2)c1cc(Cl)ccc1NS(=O)(=O)c1ccc(Oc2ccccc2Cl)cc1
[2]
  inhibition: 24.8%

## O=C(c1cc(Cl)ccc1NS(=O)(=O)c1ccc(Oc2ccccc2Cl)cc1)N1CCN(Cc2ccc(Cl)nc2)CC1
[2]
  inhibition: 12.8%

## O=Cc1ccc(N2CCC(C(=O)NCCc3cc(Cl)cc(Cl)c3)CC2)cc1
[1]
  inhibition: 3.92%

## N#Cc1cnn(-c2ccc([N+](=O)[O-])cc2)c1NC(=O)c1cc(Cl)ccc1NS(=O)(=O)c1ccc(Oc2ccccc2Cl)cc1
[2]
  inhibition: 26.5%

## O=C(NCCN1CCc2ccccc21)c1cc(Cl)ccc1NS(=O)(=O)c1ccc(Oc2ccccc2Cl)cc1
[2]
  inhibition: 12.7%
